About 190 (3.5%) of roughly 5,400 compounds showed an effect of 50% or more. Some of the results follow.

The assay relates to Vero-E6. Description: primary screen, phospholipidosis by LipidTOX staining; higher = more effect of the substance. The settings on record: 10 µM. The gist of the method:
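Drug-induced phospholipidosis detected with HCS LipidTOX Red reagent in Vero-E6 cells. Compounds tested at 10 μM, with amiodarone (10 μM) as positive control and DMSO (0.1 v/v %) as vehicle.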
With `CC(C)CC(N(C)C)C1(c2ccc(Cl)cc2)CCC1` (stereo not drawn), the result_ITMP came out at 7.43%.
For the molecule `CCN1CCN(Cc2ccc(C(=O)Nc3ccc(C)c(Oc4ccc5c(c4)CC(=O)N5)c3)cc2C(F)(F)F)CC1`, the result_ITMP is 99.1%.
In the case of `CN1CCC(=C2c3ccccc3Sc3ccccc32)CC1`, the result_ITMP was found to be 44.9%.
For `Nc1c2ccccc2nc2ccccc12`, the result_ITMP was 31.8%.
Turning to `Cc1ccc(=O)n(-c2ccccc2)c1`, the result_ITMP is given as 0.14%.
As to `CNCCCC1(c2ccccc2)OC(C)(C)c2ccccc21` (stereo not drawn), the result_ITMP is recorded as 29.5%.
The value for `C[C@]12CCC3C(CC[C@]4(O)C[C@@H](O)CC[C@]34C=O)[C@@]1(O)CCC2C1=CC(=O)OC1` (stereo partly drawn) was -7.08%.
Next, `O=S(=O)(N[C@H]1CC[C@@](c2cc(F)ccc2F)(S(=O)(=O)c2ccc(Cl)cc2)CC1)C(F)(F)F`: -0.57%; `N[C@@H](Cc1ccc(B(O)O)cc1)C(=O)O`: 2.53%.
Next, `C#C[C@]1(O)CC[C@H]2[C@@H]3CCC4=CCCC[C@@H]4[C@H]3CC[C@@]21C`: -6.81%.
As for `O=S(c1ccccc1)c1ccc2nnnn2n1` (stereo not drawn), the result_ITMP worked out at 4.16%.
Take `N[C@H](Cc1c[nH]c2ccccc12)C(=O)O`: the result_ITMP amounted to 2.75%.
Turning to `O=C(Nc1ccncc1)c1cc([N+](=O)[O-])ccc1Cl`, the result_ITMP is -1.82%.
For the molecule `CCCCCCNC(=O)Nc1ccc(S(=O)(=O)Nc2ccc(CCNC[C@H](O)COc3ccc(O)cc3)cc2)cc1`, the result_ITMP was -1.62%.
In the case of `O=C(CCCN1CCN(c2ccccn2)CC1)c1ccc(F)cc1`, the result_ITMP is on record as 2.76%.
The value for `N[C@@H](CS(=O)O)C(=O)O` was -1.45%; that for `CCOc1ccc(-c2ccc(Cn3c(CC(C)(C)C(=O)[O-])c(SC(C)(C)C)c4cc(OCc5ccc(C)cn5)ccc43)cc2)cn1` was 0.09%.
Regarding `Nc1nc(-c2ccc(Cl)c(Cl)c2)c(-c2ccncc2)s1`, the result_ITMP is reported as -2.04%.
Regarding `COCCCN1CCC(NC(=O)c2cc(Cl)c(N)c3c2OCC3)CC1`, the result_ITMP was -5.56%.
For `COc1oc(=O)c2cc(N)ccc2c1Cl`, the result_ITMP was 0.56%.
On to `C#C[C@]1(O)CCC2C3CCC4=C(CCC(=O)C4)C3CC[C@@]21C` (stereo partly drawn), for which the result_ITMP was -3.8%.
On to `COC(=O)[C@H](NC(=O)c1cc(-c2ccccc2)nc2ccccc12)c1ccccc1`, for which the result_ITMP was -1.53%.
Take `COC(=O)C1=C(C#N)NC(C)=C(C(=O)OC(C)C)C1c1cccc([N+](=O)[O-])c1` (stereo not drawn): the result_ITMP came to 4.59%.
The value for `C[C@@H](CN1CCC(Cc2ccccc2)CC1)[C@@H](O)c1ccc(O)cc1` was 0.55%; that for `CN1C(=O)CC[C@H]1c1cccnc1` was -4.43%.
On to `Cc1c(CN2CCN(C(=O)[C@H](C)O)CC2)sc2c(N3CCOCC3)nc(-c3cnc(N)nc3)nc12`, for which the result_ITMP turned out to be 4.81%.
Turning to `CC(C)(CO)c1cc2cc(NC(=O)C3(c4ccc5c(c4)OC(F)(F)O5)CC3)c(F)cc2n1C[C@@H](O)CO`, the result_ITMP is 4.22%.
As for `Cc1cnc(-c2cc(N3CCN(C(=O)CCS(C)(=O)=O)CC3)ncc2Cl)c(C)c1`, the result_ITMP is reported as -1.89%.
`O=c1c(-n2ccnn2)c[nH]n1-c1cc(N2CCOCC2)ncn1`: the result_ITMP is given as -0.16%.
Take `CC[C@@H]1C(=O)OC[C@@H]1Cc1cncn1C`: the result_ITMP is reported as -4.18%.
On to `CN1CCc2c(c3ccccc3n2Cc2ccc(C(=O)NO)cc2)C1`, for which the result_ITMP was determined as 1.21%.
On to `Cc1ccc(Cl)c(Nc2ccccc2C(=O)[O-])c1Cl`, for which the result_ITMP is -2.49%.
Consider `N[C@@H](Cn1oc(=O)[nH]c1=O)C(=O)O`, for which the result_ITMP is -2.69%.
On to `COCCOCCOc1ccc(C2=N[C@@](C)(C(=O)O)CS2)c(O)c1`, for which the result_ITMP is recorded as -2.45%.
Consider `CN1CCN(CCCCN2C(=O)CN(/N=C/c3ccc(-c4ccc(Cl)cc4)o3)C2=O)CC1`, for which the result_ITMP stood at 22.9%.
Next, `COc1ccccc1Oc1c(NS(=O)(=O)c2ccc(C)cn2)nc(-c2ccncc2)nc1OC`: -1.45%; `c1nc2c(NC3CCCCC3)nc(Nc3ccc(N4CCOCC4)cc3)nc2[nH]1`: -1.32%; `COc1cc2nccc(Oc3ccc(NC(=O)NC4CC4)c(Cl)c3)c2cc1C(N)=O`: -1.49%.
Consider `CCC(C)(Oc1ccc(C2(c3ccc(OC(C)(CC)C(=O)O)cc3)CCCCC2)cc1)C(=O)O` (stereo not drawn), for which the result_ITMP is given as -7.93%.
Turning to `C[C@@H](O[C@H]1OCCN(Cc2nn(P(=O)(O)O)c(=O)[nH]2)[C@H]1c1ccc(F)cc1)c1cc(C(F)(F)F)cc(C(F)(F)F)c1`, the result_ITMP is reported as 6.28%.
Regarding `Nc1ccn([C@@H]2O[C@@](CO)(CCl)[C@@H](O)[C@H]2F)c(=O)n1`, the result_ITMP is -0.65%.
Consider `CC(COc1ccccc1)NC(C)[C@H](O)c1ccc(O)cc1` (stereo partly drawn), for which the result_ITMP was determined as 2.04%.
Take `CCn1c(=O)[nH]c2cc(Cl)c(Cl)cc21`: the result_ITMP is listed as -5.92%.
Regarding `CC(O)Cn1cnc2c1c(=O)n(C)c(=O)n2C` (stereo not drawn), the result_ITMP worked out at 4.07%.
Consider `NCCCC[C@H](N)C(=O)O`, for which the result_ITMP is on record as -0.65%.
With `NC(=O)[C@@H](CC1CC1)[C@@H](CCC(F)(F)F)C(=O)N[C@H]1N=C(c2ccccc2)c2cccc(F)c2NC1=O`, the result_ITMP was 0.31%.
Consider `CCCCCCCCCC(=O)OC1(c2ccc(Cl)cc2)CCN(CCCC(=O)c2ccc(F)cc2)CC1`, for which the result_ITMP is on record as 0.73%.
The value for `O=C(OOC(=O)c1ccccc1)c1ccccc1` was -9.46%; that for `CCCCCCCC/C=C\CCCCCCCC(N)=O` was -1.41%.
Next, `COc1ccccc1N1CCN(CCCCNC(=O)c2ccc(-c3ccc(C(C)=O)cc3)cc2)CC1`: 6.35%; `C[C@]12CCC(=O)C=C1CC[C@@H]1[C@@H]2CC[C@@]2(C)[C@H]1CC[C@]2(O)C(=O)CO`: -5.73%.
With `NC(=O)CCCCC1CCSS1` (stereo not drawn), the result_ITMP is listed as 8.62%.
Turning to `NS(=O)(=O)c1cc2c(cc1C(F)(F)F)NCNS2(=O)=O`, the result_ITMP was -2.43%.
Take `Cc1ncc(-c2ccnc(Nc3ccc(S(C)(=O)=O)cc3)n2)n1C(C)C`: the result_ITMP came to 13.9%.
On to `OC[C@H]1O[C@@H](n2cnc3c(N[C@H]4CCC[C@@H]4O)ncnc32)[C@H](O)[C@@H]1O`, for which the result_ITMP is -1.85%.
In the case of `COC1(C2=NCCN2)COc2ccccc2O1` (stereo not drawn), the result_ITMP is -1.78%.
For the molecule `N#Cc1ccc(-c2csc(NN=C3CCCC3)n2)cc1`, the result_ITMP was -2.43%.
Take `C[C@@H]1[C@H](O)[C@@H](C)/C=C/C=C/CC/C=C/C=C/C=C/C=C/[C@H](O[C@@H]2O[C@H](C)[C@@H](O)[C@H](N)[C@@H]2O)C[C@@H]2O[C@](O)(C[C@@H](O)[C@H](O)CC[C@@H](O)C[C@@H](O)C[C@@H](O)CC(=O)O[C@H]1C)C[C@H](O)[C@H]2C(=O)O`: the result_ITMP is 1.67%.
`O=C(/C=C/c1ccc(O)cc1)c1ccc(O)cc1O`: the result_ITMP is given as -6.35%.
For the molecule `Cc1c(NC(=O)c2cccnc2)c(=O)n(-c2ccccc2)n1C`, the result_ITMP is recorded as -8.04%.
Consider `CS(=O)(=O)OCCCCOS(C)(=O)=O`, for which the result_ITMP was -2.03%.
For the molecule `CC1(C)CC(O)CC(C)(C)N1[O]`, the result_ITMP is listed as -2.69%.
`OCc1c[nH]c2ccccc12`: the result_ITMP was 1.08%.
The value for `CC(=O)N(C)c1cccc(-c2ccnc3c(C(=O)c4cccs4)cnn23)c1` was -1.02%; that for `COC(=O)C1=C(C)NC(C)=C([N+](=O)[O-])[C@H]1c1ccccc1C(F)(F)F` was -1.73%; that for `Cc1ccc(C(=O)Nc2ccc(Oc3cc4cnn(C)c4cc3-c3cn[nH]c3)c(F)c2)c(=O)n1-c1ccc(F)cc1` was 2.44%.
Turning to `N#CCNC(=O)c1ccc(-c2ccnc(Nc3ccc(N4CCOCC4)cc3)n2)cc1`, the result_ITMP is reported as 24.6%.
The value for `CN1CCCC1CCSc1ccc(O)cc1` (stereo not drawn) was 2.34%; that for `CN1CC[C@@H](NC(=O)Nc2ccc(C#N)cc2)C[C@@H]1c1nc2ccccc2[nH]1` was -1.63%.
Take `CC(C)Cc1ccc(C(C)C(=O)O)cc1` (stereo not drawn) [R4A_0001344_001 / SPE_A17655518]: the result_ITMP is -3.6%.
For `Cc1ccc(S(=O)(=O)Cc2nc(-c3ccc(C(=O)NCc4cccnc4)cc3)oc2C)cc1`, the result_ITMP is reported as -2.5%.
As for `C#CCN(C)C(C)Cc1ccccc1` (stereo not drawn), the result_ITMP is on record as 3.13%.
As to `CC(=C(CCOC(=O)C(C)C)SSC(CCOC(=O)C(C)C)=C(C)N(C=O)Cc1cnc(C)nc1N)N(C=O)Cc1cnc(C)nc1N` (stereo in doubt), the result_ITMP is on record as -2.27%.
Regarding `c1ccc2c(c1)Sc1ccccc1N2CC1CN2CCC1CC2` (stereo not drawn), the result_ITMP is listed as 71.6%.
As for `Cc1cc(Cn2nnc3c(-c4ccco4)nc(N)nc32)ccc1N`, the result_ITMP is reported as -1.13%.
`CC/C(=C(\c1ccc(O)cc1)c1ccc(OCCNC)cc1)c1ccccc1`: the result_ITMP was determined as 27.8%.
`O=C(Nc1cc(-c2ccccc2)nn1-c1ccccc1F)c1ccc([N+](=O)[O-])cc1`: the result_ITMP is listed as -0.13%.
With `Nc1nc(=O)c2c([nH]1)NCC(CNc1ccc(C(=O)N[C@@H](CCC(=O)[O-])C(=O)[O-])cc1)N2C=O` (stereo partly drawn), the result_ITMP was -2.25%.
As to `Cc1noc(-c2ccc(-c3ccc(CC(=O)[O-])cc3)cc2)c1NC(=O)O[C@H](C)c1ccccc1`, the result_ITMP is -0.34%.
Next, `COc1cc(C[C@H]2c3cc(OC)c(OC)cc3CCN2C)c(Oc2cc3c(cc2OC)-c2c(OC)c(OC)cc4c2[C@H](C3)N(C)CC4)cc1OC`: 37.3%.
For `C=CC(=O)Nc1cc2c(Nc3ccc(F)c(Cl)c3)ncnc2cc1C#CC(C)(C)N1CCN(C)CC1`, the result_ITMP amounted to 36.6%.
As to `COc1cccc2c1C(=O)c1c(O)c3c(c(O)c1C2=O)C[C@@](O)(C(C)=O)C[C@@H]3O[C@H]1C[C@H](N)[C@H](O)[C@H](C)O1`, the result_ITMP was found to be 6.36%.
The value for `CNC(=O)c1cc(Oc2ccc(NC(=O)Nc3ccc(Cl)c(C(F)(F)F)c3)cc2)ccn1` was -6.63%.
The value for `Oc1cc(O)c2c(c1)O[C@H](c1ccc(O)c(O)c1)[C@H](O)[C@H]2c1c(O)cc(O)c2c1O[C@H](c1ccc(O)c(O)c1)[C@H](O)C2` was -0.6%.
Turning to `COc1cc2nc(C3CC3)nc(N3CCN(c4ccccc4OC)CC3)c2cc1OC`, the result_ITMP is -0.15%.
Consider `CNC(=O)c1ccccc1Nc1cc(Nc2ccc(N3CCOCC3)cc2OC)ncc1C(F)(F)F`, for which the result_ITMP worked out at 10.6%.
Consider `Cc1c(N2C(=O)[C@@H]3[C@H](O)CCN3C2=O)ccc(C#N)c1Cl`, for which the result_ITMP is -1.38%.

(Values after publication PMC13083723 (Patterns, 2026).)
